Results published in a compilation of properties of binary mixtures (doi:10.1007/s10953-014-0273-1).
The densities may have been worked out from excess volumes.

Experiment: xn = mol fraction of the nth substance listed
Conditions: 101 kPa

CCCC[n+]1ccn(C)c1.F[B-](F)(F)F + CC#N
mass density [kg/m3]
Conditions | x2 = 0 | x2 = 0.1001 | x2 = 0.2034 | x2 = 0.3011 | x2 = 0.4013 | x2 = 0.5 | x2 = 0.6018 | x2 = 0.7 | x2 = 0.7997 | x2 = 0.9001
303.15 K | – | 1186.6 | – | 1157.9 | 1138.8 | 1115.4 | 1084.3 | 1044.5 | 988.6 | 905.5
313.15 K | – | 1179.4 | 1165.9 | 1150.5 | – | 1107.6 | – | 1036.1 | 979.7 | 895.9
323.15 K | – | 1172.3 | 1158.6 | – | 1123.7 | – | 1068.2 | 1027.8 | – | 886.2
333.15 K | 1177 | 1165.2 | 1151.5 | 1135.8 | 1116.2 | 1092.2 | 1060.2 | 1019.4 | 962 | 876.5

CCCC[n+]1ccn(C)c1.F[B-](F)(F)F + CN1CCCC1=O
mass density [kg/m3]
Conditions | x2 = 0 | x2 = 0.0999 | x2 = 0.2001 | x2 = 0.3028 | x2 = 0.4 | x2 = 0.4999 | x2 = 0.5998 | x2 = 0.7001 | x2 = 0.8003 | x2 = 0.9001
303.15 K | – | – | – | – | – | 1145.3 | 1129.7 | 1111.3 | 1089 | 1061.5
313.15 K | 1191 | 1182.7 | – | 1162.7 | 1151.2 | – | 1121.9 | 1103.3 | 1080.8 | 1053
323.15 K | – | 1175.6 | 1166.2 | 1155.4 | 1143.8 | 1130.1 | 1114.2 | – | 1072.7 | 1044.6
333.15 K | 1177 | 1168.5 | 1159.1 | 1148.2 | 1136.5 | 1122.6 | 1106.5 | – | 1064.6 | 1036.2

CN1CCCC1=O + CCCC[n+]1ccn(C)c1.F[B-](F)(F)F
x1 = 1
Conditions | mass density [kg/m3]
313.15 K | 1014.8
333.15 K | 997

CC#N + CCCC[n+]1ccn(C)c1.F[B-](F)(F)F
x1 = 1
Conditions | mass density [kg/m3]
303.15 K | 771.2
323.15 K | 749.1

CCCC[n+]1ccn(C)c1.F[B-](F)(F)F + CC(=O)N(C)C
mass density [kg/m3]
Conditions | x2 = 0 | x2 = 0.1006 | x2 = 0.2004 | x2 = 0.3005 | x2 = 0.4011 | x2 = 0.5002 | x2 = 0.5998 | x2 = 0.6996 | x2 = 0.8002 | x2 = 0.8999
303.15 K | 1198.1 | 1185.4 | 1171.7 | 1155.7 | 1137.7 | 1117.3 | 1093.3 | 1064.9 | 1030.1 | 987.7
313.15 K | 1191 | 1178.2 | 1164.4 | 1148.4 | 1130.2 | – | 1085.6 | 1056.9 | 1021.8 | –
323.15 K | 1184 | 1171.1 | 1157.2 | 1141 | 1122.8 | 1102.1 | – | – | 1013.6 | –
333.15 K | 1177 | 1164.1 | 1150.1 | 1133.8 | 1115.4 | 1094.6 | 1070.1 | 1041 | – | 961.7

CO + CCCC[n+]1ccn(C)c1.F[B-](F)(F)F
x1 = 1
Conditions | mass density [kg/m3]
313.15 K | 772.7
323.15 K | 763

CC(=O)N(C)C + CCCC[n+]1ccn(C)c1.F[B-](F)(F)F
x1 = 1
Conditions | mass density [kg/m3]
303.15 K | 931.7
323.15 K | 913.2
333.15 K | 903.8

CCCC[n+]1ccn(C)c1.F[B-](F)(F)F + CO
mass density [kg/m3]
Conditions | x2 = 0 | x2 = 0.1003 | x2 = 0.2047 | x2 = 0.2997 | x2 = 0.3996 | x2 = 0.504 | x2 = 0.6004 | x2 = 0.6992 | x2 = 0.7997 | x2 = 0.9001
303.15 K | – | 1188.9 | – | – | 1149 | – | – | 1067.8 | 1015.1 | 932.6
313.15 K | – | – | – | 1157.7 | 1141.6 | 1120.4 | 1095.5 | 1059.8 | – | –
323.15 K | 1184 | – | 1163.3 | 1150.4 | – | 1112.8 | – | 1051.8 | 998.5 | 915.1
333.15 K | 1177 | 1167.6 | 1156.2 | 1143.2 | – | 1105.5 | 1080.3 | 1044.2 | 990.8 | 906.3
